Data on 86 sequences can be found in the supplement of paper PMC3334620.

The full ranking holds about 33,000 sequences; the median of “E-score (-0.5 to 0.5)” is about -0.013, and the highest 2% start at about 0.3. Some of the results follow.

In the test the target is T1, Msn1 (UniProt P22148).
T1 sequence: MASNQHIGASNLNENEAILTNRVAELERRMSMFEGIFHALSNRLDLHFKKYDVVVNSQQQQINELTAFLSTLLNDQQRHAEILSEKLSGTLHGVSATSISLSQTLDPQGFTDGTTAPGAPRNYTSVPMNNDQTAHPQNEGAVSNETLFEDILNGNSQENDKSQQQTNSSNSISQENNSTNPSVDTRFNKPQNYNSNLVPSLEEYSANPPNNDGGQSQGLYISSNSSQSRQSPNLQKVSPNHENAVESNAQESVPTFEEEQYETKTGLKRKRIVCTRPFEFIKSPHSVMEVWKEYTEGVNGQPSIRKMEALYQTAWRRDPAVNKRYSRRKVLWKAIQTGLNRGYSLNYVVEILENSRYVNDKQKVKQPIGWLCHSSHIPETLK
In words: PBM E-score (8-mer binding enrichment) (E-score (-0.5 to 0.5)); higher = stronger / more preferred TF binding; most listed sequences are background and not binding sites. The settings on record: protein concentration: 200 nM; construct: GST-full length. The essentials:
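Each ungapped eight-base word and its reverse complement, pooled, received an E-score from the Universal PBM Analysis Suite. Underlying scans, normalised with masliner, recorded fluorescent anti-GST bound to GST-tagged yeast transcription factors. These were applied at about 100-200 nM to universal all-10-mer Agilent arrays double-stranded by primer extension.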
On to GCTACGAC, for which the “PBM E-score” value was found to be 0.0207.
As for AGCTGCTA, the “PBM E-score” value is -0.118.
With CACTAATC the figure was 0.0285; with CATTTTTA, 0.109; with TAGAGCCA, -0.192.
With CATGAGTC the figure was 0.0695.
In the case of AATGAATC, the “PBM E-score” value turned out to be 0.0813.
As to AAACAGCT, the “PBM E-score” value was 0.0295.
With GAAGCAGA the figure was -0.178; with GAAGCCAC, -0.105; with GATGAATA, 0.069.
As for AGGTACGA, the “PBM E-score” value is -0.0249.
With CACACTTC, the “PBM E-score” value is 0.102.
On to CCCGTCAA, for which the “PBM E-score” value is -0.133.
With AGTAGACA, the “PBM E-score” value came to 0.228.
With CATTGCCG the figure was 0.0253; with AACCTAAA, 0.121.
Then AGATGATA, with 0.259.
As for AGCAGGAG, the “PBM E-score” value is -0.123.
As to ATTGTGTA, the “PBM E-score” value amounted to 0.14.
AGAGTCAG: the “PBM E-score” value is -0.0137.
With GTGTCGAA, the “PBM E-score” value came to 0.0799.
Then CCACCACA, with -0.214; and AACAAAGG, with 0.00627; and CCGACTTA, with 0.168.
Turning to CTTTTTGA, the “PBM E-score” value turned out to be 0.135.
As for CCTTGACA, the “PBM E-score” value was determined as 0.0303.
ACTTAGCC: the “PBM E-score” value was -0.0569.
Then CGCTGTTA, with -0.124.
With AATGTGTG, the “PBM E-score” value stood at 0.0774.
Regarding ACATATCT, the “PBM E-score” value came out at 0.142.
Then AGTGGGTG, with -0.0455.
On to AACCCTGG, for which the “PBM E-score” value was -0.207.
Take AAATTCAA: the “PBM E-score” value was determined as 0.255.
Consider ACACTACT, for which the “PBM E-score” value came out at 0.101.
For the sequence CGAATCCC, the “PBM E-score” value is -0.0406.
On to CATCCTAA, for which the “PBM E-score” value was 0.139.
Take ACACAAGC: the “PBM E-score” value turned out to be 0.0155.
As for TGACTTAA, the “PBM E-score” value was 0.071.
Turning to ACTGCCAG, the “PBM E-score” value turned out to be 0.0417.
Then GGTCTTAA, with -0.174; and AACACGTG, with 0.105; and ATACCCAT, with -0.0499.
Then CTTTGTAC, with 0.322.
On to TCTTGAAA, for which the “PBM E-score” value turned out to be 0.194.
Regarding CTAGGCCA, the “PBM E-score” value is -0.129.
In the case of GAGAATAC, the “PBM E-score” value amounted to 0.151.
Regarding CATGACAA, the “PBM E-score” value is 0.383.
As to CAGCCAGG, the “PBM E-score” value was -0.216.
As to CCTCTAGC, the “PBM E-score” value is -0.169.
Regarding ACGCCATA, the “PBM E-score” value is -0.00323.
With CCGCATGA the figure was -0.101; with AAGCCGCG, 0.0745; with CCCCGTCC, -0.379.
With AATGGACC the figure was 0.0605; with ATAGTATC, 0.119; with AGCAAGTA, 0.0366.
In the case of ACCTGATG, the “PBM E-score” value is -0.0993.
On to AAAACGCA, for which the “PBM E-score” value was determined as 0.0199.
With ACATTTGC the figure was 0.258; with ACAGAATG, 0.0899.
For the sequence GGCCGCTA, the “PBM E-score” value is -0.127.
Then ACAACCCG, with 0.0775; and AATTCGGG, with 0.0723; and AAAGCCAG, with -0.0679.
As for AGGGTTAA, the “PBM E-score” value was -0.17.
CTGAGGAA: the “PBM E-score” value was -0.159.
Take CTGCTATC: the “PBM E-score” value is 0.0175.
With GGTCTTGA the figure was -0.084; with GACTTGGA, -0.0767; with CGGTCTGC, -0.139.
In the case of AATTCCAT, the “PBM E-score” value stood at 0.216.
Regarding CGACGAAA, the “PBM E-score” value came to 0.115.
Consider GATAACCC, for which the “PBM E-score” value is -0.0931.
Turning to ATTGTCCC, the “PBM E-score” value came out at 0.462.
As to ACCCGGTG, the “PBM E-score” value is -0.27.
Turning to CAAATGGC, the “PBM E-score” value worked out at 0.173.
For the sequence ACGATGAA, the “PBM E-score” value stood at 0.0016.
Then CGTTGGAC, with 0.0323.
With ACGGTGGC the figure was -0.149; with AAAGAAGA, -0.0588; with AACGCAGG, -0.221.
In the case of CCGGTATC, the “PBM E-score” value is -0.217.
CTATCGAA: the “PBM E-score” value turned out to be 0.0197.
AACCACCG: the “PBM E-score” value turned out to be 0.0326.
For the sequence ACGCGGAA, the “PBM E-score” value turned out to be 0.047.
